Values joined by “and” are separate entries in the source; they are usually repeats but may differ in a detail not shown here. Equal entries are not always repeated. The campaign covered roughly 48,000 compounds. About 1,200 (2.5%) were called active. Not shown: some 2% with an inconclusive outcome.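 How the source made its calls: active means activation of at least 60% and not above a set upper limit (about 1 call in 100 departs from these limits); inconclusive means activation of 40% to 60%, or above that upper limit; inactive means activation under 40%.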 Some of the results follow.

In the experiment the target is Probable G-protein coupled receptor 32 (Homo sapiens) (UniProt O75388). Description: qHTS for Agonists of Human Resolvin D1 Receptor DRV1. Further: 0% is about no effect. The settings on record: CHO-K1 GPR32 beta-arrestin PathHunter luminescence, 90 min; at 76.9 µM; stronger effect = higher value; zero percent set by DMSO-only wells. The procedure, abridged:
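PathHunter beta-arrestin recruitment in CHO-K1 cells stably expressing ProLink-tagged GPR32. Cells were exposed to compound for 90 min at 37 C, then chemiluminescence was read after 1 h detection at ambient temperature; DMSO served as basal control.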
Take `CC[N+](CC)(CC)CCOc1ccc(/C=C/c2ccccc2)cc1`: the activation was inactive: 26.5%.

As to `Cc1ccc(NS(=O)(=O)c2c(C)nc3sc(C)c(C)n3c2=O)cc1F`, the activation was inactive: -9.06%. As to `NCC1OC(O[C@H]2[C@H](O)[C@@H](OC3C(O)C(N)CC(N)C3OC3OC(CO)C(O)C(O)C3N)O[C@@H]2CO)C(N)C(O)C1O` (some centres not stated), the activation was inactive: 4.29%. For `O=C(CSc1nc2ccsc2c(=O)n1-c1ccc(Br)cc1)NCc1ccc(Cl)cc1`, the activation is inactive: -0.755%. Consider `COc1ccc(CCNC(=O)Cc2ccc(NC(=O)N3CCSc4ncccc43)cc2)cc1OC`, for which the activation is inactive: 4.71%.

With `Cc1cccc(NC(=O)c2cc3c([nH]c2=O)CC(c2ccccc2)CC3=O)c1` (configuration not stated), the activation is inactive: -9.8%. As for `COc1cccc(-c2nc(CS(=O)(=O)CC(=O)Nc3ccc(C)c(Cl)c3)c(C)o2)c1`, the activation is inactive: -19.7%.

Turning to `COc1cccc(CNC(=O)Cn2cccc2C(=O)c2ccccc2)c1`, the activation was inactive: -20.3%. In the case of `COc1ccc(C(=O)N2CCN(c3nc4c(OC)cccc4s3)CC2)cc1OC`, the activation is inactive: 26.3%. The result for `O=C(Cn1c(=O)n(Cc2ccc(F)cc2)c(=O)c2sc3ccccc3c21)Nc1ccc(F)cc1F` reads inactive: -25.7%; that for `COC(=O)CCNC(=O)N1CCN(c2nnc(C)c3c(C)n(-c4ccccc4)nc23)CC1`, inactive: -6.11%. As to `COc1cc(C(=O)NCc2nc(-c3ccc(Cl)cc3)no2)cc(OC)c1OC`, the activation was inactive: -5.33%. As for `COc1ccc(CNc2ncnc3c2c(-c2ccccc2)cn3-c2cccc(C)c2)cc1`, the activation was inactive: -35.3%.

For `CCc1cc(C(=O)NCc2ccc(F)cc2)no1`, the activation was inactive: -0.217%. The result for `CN(C)C(=O)C(CCN1CCC(O)(c2ccc(Cl)cc2)CC1)(c1ccccc1)c1ccccc1` reads inactive: 38.6% and inactive: -19.2%; that for `CC(=O)c1ccc(S(=O)(=O)N2CCn3cccc3C2c2ccc(F)c(F)c2)cc1` (configuration not stated), inactive: -9.81%; that for `Cc1ccc(N2CC(NC(=O)C3CCCC3)CC2=O)cc1C` (configuration not stated), inactive: 4.83%. To `CC(C)Oc1ccc(CNC(=O)c2ccc3c(c2)N(C)C(=O)C2CCCCN32)cc1` (configuration not stated) belongs inactive: -13.5%. As for `CCN1CCN(c2cc(C)c3cc(NC(=O)/C=C/c4ccc(OCCC(C)C)cc4)ccc3n2)CC1`, the activation is inactive: -13.2%.

Consider `COc1cccc(NC(=O)C2CCN(S(=O)(=O)c3c(C)noc3/C=C/c3cccs3)CC2)c1`, for which the activation is inactive: -25.5%. To `O=C(COc1ccccc1Cl)Nc1nc(-c2ccc(F)cc2)ns1` belongs inactive: 24.5%; to `CCc1nnc(SCc2nc(-c3cccc(C)c3)oc2C)c2cc3sc(C)cc3n12`, inactive: -14.4%. As for `COc1ccc(C(=O)Nc2cc(NC(=O)c3ccco3)ccc2OC)cc1Cl`, the activation was inactive: -10.9%. The result for `O=C(CSc1nccn1-c1ccc(F)cc1)Nc1cccc2ccccc12` reads inactive: -25.8%. Regarding `Cc1ccc(NC(=O)CSc2nc(C3CCCC3)nc3c2c(=O)n(C)c(=O)n3C)c(C)c1`, the activation was inactive: -0.178%. `CCOC(=O)c1c(-c2ccccc2)oc2cc(Br)c(OCc3ccccc3)cc12`: the activation is inactive: -4.44%. With `Cc1ccc(OCCCCn2nnc3sc4c(c3c2=O)CCC(C)C4)cc1` (configuration not stated), the activation is inactive: -0.564%.

In the case of `CCn1c(=N)c(C(=O)NC2CCCC2)cc2c(=O)n3cc(C)ccc3nc21`, the activation is inactive: -2.17%. To `O=C(Cn1c(=O)n(-c2ccc(F)c(Cl)c2)c(=O)c2sc3ccccc3c21)NC1CCCCC1` belongs inactive: -3.58%.

Consider `Cc1ccc(Cl)cc1Nc1nn2c(=O)c3ccc(C(=O)NC4CCC(C)CC4)cc3nc2s1` (configuration not stated), for which the activation is inactive: 10.9%. To `CN1CCN(C2(CNC(=O)COc3ccc(C(C)(C)C)cc3)CCCCC2)CC1` belongs inactive: -11.3%; to `CCN(CC)S(=O)(=O)c1ccc2c(c1)N(CC(=O)NCCCN1CCN(c3cc(C)ccc3C)CC1)C(=O)CO2`, inactive: -24.1%; to `CCOc1ccc(C(=O)NCCc2csc(-c3cccnc3)n2)cc1`, inactive: 36.9%.

Take `Cc1ccc(NC(=O)C2CCCN(S(=O)(=O)c3cccc4nsnc34)C2)c(C)c1` (configuration not stated): the activation was inactive: -9.15%. The result for `CCNC(=O)C1CCCN(c2nn3cc(-c4ccc(C)cc4)nc3s2)C1` (configuration not stated) reads inactive: -5.02%; that for `CC(C)c1ccc(CNCCSc2nnnn2-c2ccccc2)cc1`, inactive: 21.7%.

`CCOc1ccc(-n2nc3ccc(NC(=O)COc4ccccc4)cc3n2)cc1`: the activation is inactive: -2.01%. As for `Cc1cc(C)cc(NC(=O)C2CCN(c3nc4ccccc4nc3C(F)(F)F)CC2)c1`, the activation was inactive: 6.23%. As to `CCc1ccc(NC(=O)Cn2c(=O)n(CCC(=O)NCCc3ccc(OC)c(OC)c3)c(=O)c3ccccc32)cc1`, the activation is inactive: 10.1%. To `CCC(C)S(=O)(=O)c1oc(-c2ccc(F)cc2)nc1S(=O)(=O)c1ccc(F)cc1` (configuration not stated) belongs inactive: 13.2%; to `COc1ccc(Cn2c(C(=O)O)c(CNCc3ccc(C)o3)c3ccc(OC)cc32)cc1`, active: 74.6%; to `CCOc1ccc(NC(=O)c2ccc3nc(C(C)C)oc3c2)cc1`, inactive: -18.4%. The result for `COc1ccc(Cn2c(=O)c3ccccc3n3c(-c4ccc(C)cc4)nnc23)cc1` reads inactive: -13.6%; that for `COc1ccccc1OC(C)C(=O)N1CCC(c2nc3ccccc3s2)CC1` (configuration not stated), active: 84.8%; that for `Cc1ccc(C)c(CN2C(=O)CSc3ccc(C(=O)NCc4ccccc4)cc32)c1`, inactive: -10.7%.

With `CCc1cccc(NC(=O)Cn2nc(C)c3sc4ccccc4c3c2=O)c1`, the activation was inactive: -8.9%. For `Cc1ccc(OCc2cc(=O)n3cc(C)sc3n2)c(NC(=O)c2ccco2)c1`, the activation is inactive: -14.4%. To `COc1ccc(NC(=O)c2cnc3sc(N4CCOCC4)nn3c2=O)c(OC)c1` belongs inactive: -0.286%; to `COc1cc(C(=O)Nc2c(C(=O)Nc3ccccc3F)oc3ccccc23)cc(OC)c1OC`, inactive: -7.11%; to `Cc1ccc(C)c(NC(=O)Cn2cc(S(=O)(=O)NC(C)C)c(S(=O)(=O)NC(C)C)c2)c1`, inactive: 2.92%. With `CC(C)c1cc2c(cc1S(=O)(=O)O)[C@@]1(C)CCC[C@@](C)(C(=O)O)[C@@H]1CC2`, the activation was inactive: 0.0557%. As to `CCCn1c(NCc2ccccc2F)nc2ccccc21`, the activation is inactive: -4.27%. The result for `CCC(=O)N1c2ccc(S(=O)(=O)CCC(=O)N3CCN(c4ccc(F)cc4)CC3)cc2CC1C` (configuration not stated) reads inactive: 8.96%; that for `COc1ccc2c(c1)CC(NC(=O)Nc1ccc(Br)c(C)c1)CO2` (configuration not stated), inactive: 1.87%; that for `O=C(NCc1cccc(F)c1)c1ccc2nc(CCc3ccccc3)oc2c1`, inactive: 20.6%. The result for `CCOC(=O)c1cc2c(=O)n3ccccc3nc2n(CC2CCCO2)c1=NC(=O)c1ccc(F)cc1` (configuration not stated) reads inactive: -16.6%. Regarding `COc1ccc(-c2nnc(SCC(=O)Oc3cc(C)ccc3C)o2)cc1`, the activation is inactive: -8.54%. The result for `COc1ccc(C(=O)Nc2nonc2-c2ccc(OC)c(OC)c2)cc1Cl` reads inactive: -5.41%. To `Cc1ccc(-c2nc(Cn3c(SCc4ccc(F)cc4)nc4cccnc43)c(C)o2)cc1` belongs inactive: -10.2%; to `CCN(C(=O)c1cccn(Cc2cccc(Cl)c2)c1=O)c1ccccc1`, inactive: -2.08%. The result for `CCCCCNC(=O)c1ccc2c(=O)n(CCc3ccccc3)c(=O)[nH]c2c1` reads inactive: -5.33%; that for `CCOC(=O)N1CCc2c(sc(NCc3cccc(F)c3)c2C(=O)Nc2ccc(OCC)cc2)C1`, inactive: -7.2%.

Consider `CCSc1ncc(Cl)c(C(=O)Nc2ccc(S(=O)(=O)N3CCCCC3)cc2)n1`, for which the activation is inactive: -2.65%. To `CCOc1ccc(NC(=O)Cn2c(=O)n(-c3cccc(OC)c3)c(=O)c3c4c(sc32)CCCC4)cc1` belongs inactive: -9.52%; to `COc1ccc(Cl)cc1NS(=O)(=O)c1ccc2c(c1)NC(=O)CC(=O)N2`, inactive: -5.11%.

`CCCCN(CCCC)CCNC(=O)c1cn(CC)c2ccc(S(=O)(=O)N(C)C3CCCCC3)cc2c1=O`: the activation is inactive: -21.8%. Turning to `Cc1ccc(C)c(Cn2cc(S(=O)(=O)c3ccc(Cl)cc3)c(=O)c3cc(F)ccc32)c1`, the activation was inactive: -9.54%. To `CCc1ccc(NC(=O)c2ccc3[nH]c(C)c(C)c3c2)cc1` belongs inactive: -18.9%; to `CCN(Cc1ccccc1)C(=O)CN(c1ccc(OC)cc1)S(=O)(=O)c1c(C)nn(C)c1C`, inactive: -74.4%. To `CCOC(=O)C1CCN(C(=O)Cn2c(=O)oc3cc(S(=O)(=O)N4CCC(C)CC4)ccc32)CC1` belongs inactive: -0.0627%; to `CC(=O)N1CCc2c(sc3c2c(=O)n(CCc2ccccc2)c(=O)n3Cc2ccc(Cl)cc2)C1`, inactive: -5.81%. To `COCCNC(=O)Cn1c(=O)n(CCCCCC(=O)NCc2ccc3c(c2)OCO3)c(=O)c2sccc21` belongs inactive: -8.19%. Take `Cc1ccccc1NC(=O)CSc1nc2c(c(=O)n(C)c(=O)n2C)n1Cc1ccccc1F`: the activation was inactive: 29%. As for `Cc1cc2c(cc1S(=O)(=O)N1CCCCC1)OCC(=O)N2`, the activation is inactive: -21.2%. To `CCOCCCNc1ncnc2c1cnn2-c1ccc(C)c(C)c1` belongs active: 89.3%. Regarding `CCNc1nc(OC)nc(Oc2ccc(=O)[nH]n2)n1`, the activation was inactive: -5.42%.

For `COc1ccc(-c2nc(CSc3nncn4c3cc3sccc34)c(C)o2)cc1OC`, the activation is inactive: -10%. To `O=C(CN1C(=O)CCc2cc(S(=O)(=O)N3CCOCC3)ccc21)NCc1ccccc1` belongs inactive: 9.72%; to `CN1[C@@H]2CC[C@H]1CC(OC(=O)C(O)c1ccccc1)C2` (some centres not stated), inactive: -1.35%. To `CC(C)(C)c1ccc(S(=O)(=O)N2CCN(Cc3noc(CCC(=O)N4CCCCC4)n3)CC2)cc1` belongs inactive: -4.36%; to `CCc1ccc(NC(=O)CSC2=Nc3ccccc3C3=NC(CCC(=O)NCc4ccco4)C(=O)N23)cc1` (configuration not stated), inactive: -26.2%. On to `CCCNC(=O)c1ccc2nc(CCc3ccccc3)oc2c1`, for which the activation was inactive: -10.2%.
